In the RNAGym collection of RNA variant scans (doi:10.1073/pnas.2313332121):
Variants at the background level are over-represented here.

B1: TPR 5TU (parent)
chain: GGAUCUUCUCGAUCUAACAAAAAAGACAAAUCUGCCACAAAGCUUGAGAGCAUCUUCGGAUGCAGAGGCGGCAGCCUUCGGUGGCGCGAUAGCGCCAACGUUCUCAACUAUGACACGCAAAACGCGUGCUCCGUUGAAUGGAGUUUAUCAUG

Variants of: B1
Experiment: polymerase ribozyme fitness, log enrichment relative to wild type (log ratio); higher = more active; in vitro selection for triplet polymerase activity
Summary of the method: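 Fitness measures genotype enrichment against wild-type enrichment on a logarithmic scale, with inverse-variance-weighted averaging of replicates. The logarithm is base 2, and genotypes were kept only with ≥10 input reads and ≥1 read per output in Illumina sequencing. The sequenced libraries came from one triplicate in vitro selection round, including frozen incubation at −7 °C, of PCR-built, transcribed mutant libraries of each subunit of a heterodimeric triplet polymerase ribozyme.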

| Variant | polymerase ribozyme fitness (log ratio) |
| --- | --- |
| A49C U55A C76U C85G C108U A138U | ≤ -4.2 |
| C51A G86A G126A G128U G141A | ≤ -4.2 |
| G50C G80A A89C | ≤ -4.2 |
| A49G G62A G70U G94C C105A A107U | ≤ -4.2 |
| G50C U55A G58A A60U A89U G94C C103U C125G | ≤ -4.2 |
| G50U G59C C85U C87A G92C A107G A137G A138U | ≤ -4.2 |
| C51A C57G G68C A73C C76G G86U G100C A120G A122C U134A | ≤ -4.2 |
| A49G C54A G70U G83C | ≤ -4.2 |
| G50C C75A G86U G100A A147G | ≤ -4.2 |
| G50C A115U A137C | ≤ -4.2 |
| A49U U61G A98G C114G U148A | ≤ -4.2 |
| A49G G59C G67A G70A U77C U82C A89G C95G | ≤ -4.2 |
| A49G A122U G124U | -0.811 |
| A49G C87G G88A C125A | ≤ -4.2 |
| G50C C93G U104C | ≤ -4.2 |
| G50A C93G G124A C125U G133A U135G A150G | ≤ -4.2 |
| C51A G74A C85A C114A | ≤ -4.2 |
| G50U C95G G100A | ≤ -4.2 |
| C51U G65C C87U | ≤ -4.2 |
| C51G G58C | -1.42 |
| G50C C57U G59C C99G | ≤ -4.2 |
| A49G G58A | -0.296 |
| A49G G74C U101G G112C A122U U127A A138C | ≤ -4.2 |
| A49C G62U C95U U101C A121G U145G | ≤ -4.2 |

| Variant | polymerase ribozyme fitness (log ratio) |
| --- | --- |
| G50C C105G A142C | ≤ -4.2 |
| C51G G62U G67C A89C C96A | ≤ -4.2 |
| G50U A91G A106G G140C | ≤ -4.2 |
| A49U C96G | -0.972 |
| G50C U78C C85U C108U | ≤ -4.2 |
| A49G A97G | -1.11 |
| C51A G62U A66U | ≤ -4.2 |
| A49G C57U C75A U146G | ≤ -4.2 |
| G50A C103U | -1.49 |
| A49G A52G U55A G84C U90G G100U A113G | ≤ -4.2 |
| A49C U53A C54A C87U U102C | ≤ -4.2 |
| C51U G62U C75U G88U C95A | ≤ -4.2 |
| A49C C76A G83A G128A | ≤ -4.2 |
| C51U C87G C93G C105G A106C A113G | ≤ -4.2 |
| G50U U56A G94U A106G C116G C123U | -0.9 |
| A49G G83A C99U U145G | ≤ -4.2 |
| G50A C54A C75G C103U | ≤ -4.2 |
| C51A G67U C79U C93G C99U | ≤ -4.2 |
| C51A G67A A73G C95A U101G G140U U151G | ≤ -4.2 |
| A49U G88A | ≤ -4.2 |
| C51A G86U A89U U134A | ≤ -4.2 |
| G50A C95U C125U | -2.44 |
| C51G C87A G126U U148A | ≤ -4.2 |
| G50C G84U C105G | ≤ -4.2 |

| Variant | polymerase ribozyme fitness (log ratio) |
| --- | --- |
| G50C G59U C93U C95G U102G U135A | ≤ -4.2 |
| G50A C95G G124A G126A G140U C149U | ≤ -4.2 |
| G50A U82G G88C G92U A120C A137C C149U | ≤ -4.2 |
| C51U C85U G100C | ≤ -4.2 |
| C51A G58U G59A C85A | ≤ -4.2 |
| G50C U55A C72U C116G A120G C129A | ≤ -4.2 |
| G50C U56G G58C C85U G86C U102G C105G U139G G143U U151A | ≤ -4.2 |
| C51A U53A A66G G81C U90C | ≤ -4.2 |
| C51G A52G U53A U56G C57G G86U C96G | ≤ -4.2 |
| G50A C85U C105U U134G A147G U151C | ≤ -4.2 |
| G50U U77A G86A A97C | ≤ -4.2 |
| C51U G86A C103G | ≤ -4.2 |
| G50C U53A C57G A73G C93A C95A U101G A107G A138C U144C | ≤ -4.2 |
| G50C G81A G86A A115U G136U | ≤ -4.2 |
| G50U A97U A147U | 0.621 |
| G50C C118A | -4.05 |
| A49G C76U A89C C96A | -2.23 |
| C51G G58C G62A G88C C105U | ≤ -4.2 |
| G50U U53A G58A A73G C79A C93A A107U C116G G136C | ≤ -4.2 |
| C51G G80U G94U | ≤ -4.2 |
| G50A C57G C87U A106G A110C U111C A115C G141A | ≤ -4.2 |
| G50A G62A G117A | -1.7 |
| A49C G84A | ≤ -4.2 |
| A49C U56A G83U G112A A120C | ≤ -4.2 |

| Variant | polymerase ribozyme fitness (log ratio) |
| --- | --- |
| C51U G81C C85U G117C U134A A137G | -3.98 |
| G50C G84A U151G | ≤ -4.2 |
| G50A C75G C96G C116G U144C | ≤ -4.2 |
| A49U A52C C69A C85U C114U A115U C131A G141U | ≤ -4.2 |
| C51A G70A G80C C96G G124U G136C U148C | ≤ -4.2 |
| A49G A52U G58C C108G U134C C149U | ≤ -4.2 |
| C51U G67A C72A C123U C132A U134C | ≤ -4.2 |
| C51A G58A G74C C96U A107C | ≤ -4.2 |
| C51A C118G | -3.24 |
| G50C G92U A119U | ≤ -4.2 |
| A49U G62U G71U U111G C123G | ≤ -4.2 |
| G50A C57U C85U G128A | ≤ -4.2 |
| A49C U53A G81C A98U G100A C103A | ≤ -4.2 |
| G50U C87U A89G | -3.95 |
| A49C C93U U130A G152U | ≤ -4.2 |
| G50A A91U | ≤ -4.2 |
| G50C A52C A73U U77G C79A G88A U102A C125G | ≤ -4.2 |
| G50A A52C A97G G100A C114G G133U | ≤ -4.2 |
| G50C A52U U102G U135C | ≤ -4.2 |
| C51U G58C C87U U111G C118U | ≤ -4.2 |
| G50A U78G G86U U127C | ≤ -4.2 |
| C51A U53A C57G C79A A98U C108U | ≤ -4.2 |
| C51U C96U | -0.419 |
| A49C U55G C85A | ≤ -4.2 |

| Variant | polymerase ribozyme fitness (log ratio) |
| --- | --- |
| G50U A73U C87U | -2.26 |
| A49C G59A A64G G70A G83C C93U | ≤ -4.2 |
| C51U C96U G124A | -0.0401 |
| C51G A106G | -3.04 |
| G50A G86A C131U | -1.93 |
| C51G G84A C95G A119G | -2.85 |
| A49C U77A G86C C87U A97G | ≤ -4.2 |
| C51U A60G C85A | -3.39 |
| A49C U101G G141U | -1.78 |
| G50A C72U G84U C131A | ≤ -4.2 |
| A49C G50C G67C C72G G84A C108A A142G A147U | ≤ -4.2 |
| C51U G92U C99A A106G C123G C129U | -2.74 |
| C51G C125U G141U | -3.54 |
| G50A C95U | -2.44 |
| C51U C76G C87U A137C C149A | ≤ -4.2 |
| A49C G58C A66G C93G A107U A120U | ≤ -4.2 |
| A49C U56G G65U A73C C87A | ≤ -4.2 |
| C51U G84A | -0.489 |
| G50C A66G G84A C87U U139A G143U | ≤ -4.2 |
| C51G C57U G83A A110G G152C | ≤ -4.2 |
| G50U U102G | -2.92 |
| G50A G86U | -3.78 |
| C51A U53C G80C U82G C93A G100A G133A | ≤ -4.2 |
| G50C U56A U78A G83A G94U C95A | ≤ -4.2 |

| Variant | polymerase ribozyme fitness (log ratio) |
| --- | --- |
| A49G G71U | ≤ -4.2 |
| G50U G59U A89G C93A U101G U151C | ≤ -4.2 |
| C51U G74U G83C A98U C114A A121G C149A | ≤ -4.2 |
| A49U C75U C85G | ≤ -4.2 |
| G50C C51U G92U | -2.09 |
| A49C U77G G80C A91U C116G | ≤ -4.2 |
| A49C G50C A52C C93U U151C | ≤ -4.2 |
| C51G C96A A147C | -3.82 |
| G50A G59A U101G | -0.0298 |
| A49C U61G C99G G124A | ≤ -4.2 |
| G50U C63U C85A A110G | -4.19 |
| G50C G65C A120G U146A A150G | ≤ -4.2 |
| G50C A73C A106C | ≤ -4.2 |
| C51G C75A C95U C118U C125U G126A A137G G140A | ≤ -4.2 |
| C51U C54U G58A A64G C69U C72G U77C G84U U101C C116A U146C | ≤ -4.2 |
| G50C U78G G80A G83A U130A A142U | ≤ -4.2 |
| G50C A119U | -3.92 |
| G50A G94U C116G | -1.85 |
| A49U C57A G81A A98C U148G | ≤ -4.2 |
| C51G G83U A110C G140C | ≤ -4.2 |
| A49C C87A C96G A122G C129U | ≤ -4.2 |
| A49C G68C C95U C123U U148A | ≤ -4.2 |
| A49U A73G A91C G94C G141C | ≤ -4.2 |
| A49C U144C | ≤ -4.2 |

| Variant | polymerase ribozyme fitness (log ratio) |
| --- | --- |
| C51G A73U | -3.44 |
| G50C C93G C99U | ≤ -4.2 |
| C51A A52G A60U G68A C105U A115G G141U | ≤ -4.2 |
| G50A G59A C96U A122U A142G A147U | -3.67 |
| A49C U55A G84U C85U G126C U145G U148C | ≤ -4.2 |
| C51U G83C G92C A142C | ≤ -4.2 |
| A49C G94C | -4.16 |
| C51U C85U C96G A119C G141A | -2.65 |
| G50U G65C A66C C96G | ≤ -4.2 |
| A49C U55A A150C | ≤ -4.2 |
| C51G A91G G92U U101C | ≤ -4.2 |
| A49C U77C A89G | ≤ -4.2 |
| A49C U61C G84A C108A U111G | ≤ -4.2 |
| A49G C95U | -0.995 |
| A49C G65A C85A G140A | ≤ -4.2 |
| G50A G68A G80A C99G U148A A150G | ≤ -4.2 |
| C51A U102A | -1.41 |
| G50C A60G G67A U148C | ≤ -4.2 |
| A49U G62C C123U | -2.38 |
| C51U A66G G88A | ≤ -4.2 |
| A49C U61G A73G C99U U134A U146A A147G | ≤ -4.2 |
| A49U G141U A142C | ≤ -4.2 |
| C51U C87G U104A U139C | ≤ -4.2 |
